The supplement of paper PMC4166925
± gives the standard deviation of the averaged measurements. Whole data set: some 33,000 sequences, median “E-score (dimensionless, -0.5 to 0.5)” near -0.046, cut for the highest 2% near 0.36. The list shows a part of the results.

What follows are sequences tested on T1, SpTbr T-box DNA-binding domain (GST fusion) (assay: PBM E-score of 8-mer (E-score (dimensionless, -0.5 to 0.5)); Tbr is Tbrain of the sea star Patiria miniata (Pm) or the sea urchin Strongylocentrotus purpuratus (Sp); higher = stronger binding preference; most listed sequences are background and not binding sites). Details: the construct has about 5 more residues each side.
T1 sequence: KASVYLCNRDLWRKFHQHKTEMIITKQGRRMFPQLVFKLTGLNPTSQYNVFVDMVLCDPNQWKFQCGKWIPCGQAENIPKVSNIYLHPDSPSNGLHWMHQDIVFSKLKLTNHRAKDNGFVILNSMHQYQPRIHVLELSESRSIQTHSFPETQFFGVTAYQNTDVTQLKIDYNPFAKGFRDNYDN
Method in brief: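 GST-fused Tbr T-box DNA-binding domains (the whole T-box plus about five flanking residues) were expressed in BL21 E. coli at 20 °C and purified by glutathione affinity chromatography. Universal Agilent oligonucleotide arrays were made double-stranded by primer extension, incubated with 200 nM protein in PBS (pH 7.5), then scanned and quantified. Every ungapped 8-mer was scored from probe intensities. The Universal PBM Analysis Suite gave each word an enrichment E-score, averaged over duplicate arrays.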

Sequence | PBM E-score of 8-mer
GCAGAGAC | -0.2685 ± 0.0009
GAGTACGC | 0.121 ± 0.07
GCGATTCC | 0.0651 ± 0.047
ACATACCT | 0.156 ± 0.025
GTACTGAC | -0.0964 ± 0.014
CTTACAAG | -0.0445 ± 0.0079
AAATTTGA | -0.202 ± 0.12
CCCCGTTA | 0.026 ± 0.054
AACGCTCT | -0.063 ± 0.0016
AGGAGGTC | -0.269 ± 0.036
CAGCCCAG | -0.2 ± 0.047
CGATCTTC | -0.0484 ± 0.047
AACTACGG | -0.161 ± 0.072
CAGAGTCA | -0.278 ± 0.016
TATTCCCA | -0.169 ± 0.031
AGATGGTC | -0.282 ± 0.021
CGGATCCG | -0.0546 ± 0.076
GGCCCTAA | -0.259 ± 0.049
TATAGGGA | -0.252 ± 0.042
CGGGCAGC | -0.102 ± 0.074
CACCCGCG | 0.321 ± 0.018
AGCCGTTA | 0.235 ± 0.025
GCGGGTCA | -0.0128 ± 0.034
CTAGTCAG | -0.0473 ± 0.038

Sequence | PBM E-score of 8-mer
GCCGCGGA | -0.0408 ± 0.032
GAGACTAA | -0.00983 ± 0.016
CCTAAGGA | -0.1534 ± 0.0015
AGGCGACT | -0.235 ± 0.036
CCCTATGC | -0.116 ± 0.008
AGAAAGCG | 0.0529 ± 0.011
ACTTCGGA | -0.0385 ± 0.046
ACTCCCCA | 0.0341 ± 0.092
CCGCCCCA | -0.113 ± 0.05
AGTGTCTA | 0.17 ± 0.024
CGTAATCA | 0.155 ± 0.017
CTTACTCC | -0.125 ± 0.049
ATGGGTAA | -0.00095 ± 0.067
GTGGCAAC | 0.351 ± 0.013
CAACACCG | 0.312 ± 0.0065
CTATAGTC | 0.0845 ± 0.049
ACTTACAA | 0.0533 ± 0.067
AAGAGTAA | -0.113 ± 0.11
ATTCCTCG | -0.0472 ± 0.07
AACCGTAT | -0.12 ± 0.07
CAAACGGC | 0.0265 ± 0.03
ATTGAAGG | -0.0895 ± 0.13
CCTGTGAC | 0.263 ± 0.011
AAGCTGAC | 0.00715 ± 0.026

Sequence | PBM E-score of 8-mer
CCGGCATC | -0.242 ± 0.041
GAGATTGC | 0.116 ± 0.014
AGCGTAGC | -0.145 ± 0.015
AATAGCGG | -0.103 ± 0.092
GAGTATTA | -0.0219 ± 0.018
CCTTCGTC | 0.0646 ± 0.02
CTCCGCCC | 0.0177 ± 0.052
GCAGAGTA | -0.0293 ± 0.012
ACCGACCC | -0.0605 ± 0.077
ACCGCAGT | -0.139 ± 0.06
GAGCCCGA | -0.26993 ± 0.00026
AAAAGGAC | -0.0497 ± 0.078
AACCACTG | -0.317 ± 0.011
AAATGCCG | -0.00567 ± 0.027
CCGAACCA | -0.0377 ± 0.058
TCGGAGCA | -0.0265 ± 0.022
AGCCCGCA | -0.0671 ± 0.0044
ACCTGAGA | 0.189 ± 0.016
CCCTCTAC | -0.151 ± 0.0082
AATGATTC | -0.195 ± 0.0094
GGACCCAC | -0.051 ± 0.038
CACGAGCG | 0.124 ± 0.059
GGCACAAA | -0.107 ± 0.066
GACAAAGA | 0.108 ± 0.038

Sequence | PBM E-score of 8-mer
CAGTGTAA | 0.0331 ± 0.071
CACTCCTC | 0.215 ± 0.021
CTACGACC | -0.343 ± 0.084
AGCTCCGG | -0.218 ± 0.048
AACCATTA | -0.185 ± 0.079
AGGAGCTC | -0.249 ± 0.036
CCGGTCTA | -0.154 ± 0.031
GAGGATGA | -0.0416 ± 0.068
AGACCATC | -0.271 ± 0.04
CAGGTCTA | -0.191 ± 0.055
ACGGAAGA | -0.0847 ± 0.06
ATATTATA | -0.0876 ± 0.021
ATACACCG | -0.0503 ± 0.067
CGGCCTGA | -0.114 ± 0.049
AAGCGGCC | 0.0608 ± 0.058
ATTTAGAA | -0.1 ± 0.019
CCGTACCG | -0.154 ± 0.024
CTGGTCAA | -0.173 ± 0.0028
CTAGACCA | -0.204 ± 0.026
AAGTCTCA | 0.00419 ± 0.049
CTAATGAA | -0.157 ± 0.12
AAAGATAG | -0.189 ± 0.0066
